Source: the supplement of paper PMC9046079
± gives the standard deviation of the averaged measurements. Some of the results follow.

Experiments:
[1] = system: murine small intestinal organoids (ENR+CD Paneth differentiation); experiment: cellular ATP (CellTiter-Glo 3D) relative to plate median (log10 fold change); higher = more viable cells; details: 6 d
[2] = system: murine small intestinal organoids (ENR+CD Paneth differentiation); experiment: carbachol-stimulated secreted lysozyme activity relative to plate median (log10 fold change); higher = more Paneth cell lysozyme secretion; details: 6 d, carbachol 10 µM
[3] = system: murine small intestinal organoids (ENR+CD Paneth differentiation); experiment: basal (non-stimulated) secreted lysozyme activity relative to plate median (log10 fold change); higher = more Paneth cell lysozyme secretion; details: 6 d
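For basal (non-stimulated) secreted lysozyme activity relative to plate median in this document: ISC-enriched organoid precursors grown as 2.5D pseudo-monolayer on Matrigel, compound given on day 0 and day 3, plate values LOESS-normalized before median fold change, three murine donors.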
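For cellular ATP (CellTiter-Glo 3D) relative to plate median in this document: 2.5D pseudo-monolayer culture of ISC-enriched organoids partly embedded atop Matrigel, compound added on day 0 and again on day 3, per-plate LOESS correction before median fold change.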

Structure (SMILES) | cellular ATP (log10) ([1]; 0.08 µM) | cellular ATP (log10) ([1]; 0.4 µM) | cellular ATP (log10) ([1]; 2 µM) | cellular ATP (log10) ([1]; 10 µM) | carbachol-stimulated secreted lysozyme activity (log10) ([2]; 0.08 µM) | carbachol-stimulated secreted lysozyme activity (log10) ([2]; 0.4 µM) | carbachol-stimulated secreted lysozyme activity (log10) ([2]; 2 µM) | carbachol-stimulated secreted lysozyme activity (log10) ([2]; 10 µM) | basal (log10) ([3]; 0.08 µM) | basal (log10) ([3]; 0.4 µM) | basal (log10) ([3]; 2 µM) | basal (log10) ([3]; 10 µM)
O=C(NNc1nc2cc(F)ccc2n2cccc12)c1cnccn1 | -0.0309 ± 0.29 | 0.277 ± 0.35 | -0.317 ± 0.18 | -0.748 ± 0.83 | 0.104 ± 0.082 | -0.000248 ± 0.07 | -0.148 ± 0.11 | -0.314 ± 0.24 | 0.0387 ± 0.048 | -0.00798 ± 0.054 | -0.0487 ± 0.097 | -0.184 ± 0.15
Cn1c(=O)cc(N2CCC[C@@H](N)C2)n(Cc2cc(F)ccc2C#N)c1=O [Trelagliptin] | 0.216 ± 0.25 | -0.046 ± 0.17 | -0.104 ± 0.48 | 0.0929 ± 0.23 | -0.0145 ± 0.0039 | -0.0111 ± 0.15 | -0.0793 ± 0.06 | -0.247 ± 0.18 | 0.00962 ± 0.038 | -0.00336 ± 0.079 | -0.0581 ± 0.048 | -0.0799 ± 0.15
C=C1C(=O)O[C@H]2[C@H]1CC/C(C)=C/CC[C@@]1(C)O[C@@H]21 [(-)-Parthenolide] | 0.135 ± 0.043 | 0.228 ± 0.13 | 0.157 ± 0.15 | 0.157 ± 0.44 | 0.0771 ± 0.089 | 0.166 ± 0.2 | 0.0532 ± 0.024 | -0.00902 ± 0.031 | 0.0581 ± 0.012 | 0.0669 ± 0.081 | 0.0891 ± 0.013 | 0.133 ± 0.074
C=CCNC1=C2C[C@@H](C)C[C@H](OC)[C@H](O)[C@@H](C)/C=C(\C)[C@H](OC(N)=O)[C@@H](OC)/C=C\C=C(/C)C(=O)NC(=CC1=O)C2=O [17-AAG (Tanespimycin)] | -1.01 ± 0.85 | -1.26 ± 0.96 | -1.46 ± 0.62 | -1.45 ± 0.83 | -0.324 ± 0.15 | -0.43 ± 0.045 | -0.433 ± 0.024 | -0.355 ± 0.088 | -0.193 ± 0.11 | -0.205 ± 0.12 | -0.142 ± 0.076 | -0.187 ± 0.1
CCCC(=O)Nc1cccc(NC(=O)c2ccccc2Br)c1 | 0.0858 ± 0.13 | 0.028 ± 0.14 | 0.0656 ± 0.087 | -0.0351 ± 0.15 | -0.0278 ± 0.093 | -0.0608 ± 0.12 | -0.0159 ± 0.043 | -0.127 ± 0.16 | 0.0181 ± 0.097 | -0.0272 ± 0.05 | 0.0371 ± 0.034 | -0.0567 ± 0.076
CC(C)CC(=O)Nc1n[nH]c2c1CN(C(=O)C1CCN(C)CC1)C2(C)C | 0.113 ± 0.089 | 0.132 ± 0.09 | -0.144 ± 0.17 | -0.856 ± 0.35 | 0.0405 ± 0.28 | 0.0815 ± 0.012 | -0.0558 ± 0.053 | -0.332 ± 0.14 | 0.0316 ± 0.11 | 0.00978 ± 0.025 | -0.136 ± 0.043 | -0.267 ± 0.075
NC(=O)c1ccc(-c2nc(-c3ccccn3)c(-c3ccc4c(c3)OCO4)[nH]2)cc1 | 0.385 ± 0.2 | 0.333 ± 0.22 | 0.2 ± 0.17 | 0.0802 ± 0.094 | 0.123 ± 0.11 | 0.325 ± 0.4 | 0.264 ± 0.043 | 0.136 ± 0.2 | 0.0878 ± 0.12 | 0.129 ± 0.16 | 0.158 ± 0.14 | 0.0593 ± 0.11
O=C(NOC[C@H](O)CO)c1ccc(F)c(F)c1Nc1ccc(I)cc1F | -0.502 ± 0.7 | -1.16 ± 0.41 | -0.867 ± 0.7 | -0.963 ± 0.86 | -0.256 ± 0.039 | -0.294 ± 0.011 | -0.286 ± 0.025 | -0.325 ± 0.06 | -0.12 ± 0.036 | -0.122 ± 0.028 | -0.139 ± 0.081 | -0.187 ± 0.053
CCN1CCN(c2ccc(Nc3cc(N(C)C(=O)Nc4c(Cl)c(OC)cc(OC)c4Cl)ncn3)cc2)CC1 | -0.0537 ± 0.34 | 0.0263 ± 0.28 | -0.185 ± 0.19 | -1.5 ± 0.71 | 0.0322 ± 0.085 | 0.0441 ± 0.3 | -0.066 ± 0.084 | -0.403 ± 0.046 | -0.00193 ± 0.12 | -0.0598 ± 0.091 | -0.0517 ± 0.046 | -0.269 ± 0.11
